# Biological target: full-length recombinant NH-terminal GST tagged human PDE1b enzyme (Homo sapiens, UniProt Q01064)
# Test: PDE1b inhibitory assay (IMAP TR-FRET)
# Type: biochemical
# Settings: negative log of half-maximal molar inhibitory concentration; FAM-cAMP 200 nM; reported as bins; read-out: PDE1b (pEC50) (converted)
row,Compound,EC50
1,"COc1ccc(Cn2c(=O)n3ncnc3c3cc(CN4CCN(C(=O)C5CCOC5)CC4)cnc32)cc1 (stereo not shown) [Example 71, 6-(4-Methoxybenzyl)-9-((4-(THF-3-carbonyl)piperazin-1-yl)methyl)pyrido[3,2-e][1,2,4]triazolo[1,5-c]pyrimidin-5(6H)-one]",0.1 to 1 µM
2,"C[C@@H]1CN(Cc2cnc3c(c2)c2ncnn2c(=O)n3Cc2ccc(I)cc2)C[C@H](C)O1 [Example 129, 9-(((2S,6R)-2,6-Dimethylmorpholino)methyl)-6-(4-iodobenzyl)pyrido[3,2-e][1,2,4]triazolo[1,5-c]pyrimidin-5(6H)-one]",0.1 to 1 µM
3,"C[C@@H]1CN(Cc2cnc3c(c2)c2ncnn2c(=O)n3Cc2cc(F)c(F)c(F)c2)C[C@H](C)O1 [Example 156, 9-(((2R,6S)-2,6-Dimethylmorpholino)methyl)-6-(3,4,5-trifluorobenzyl)pyrido[3,2-e][1,2,4]triazolo[1,5-c]pyrimidin-5(6H)-one]",1 to 10 µM
4,"COc1ccc(Cn2c(=O)n3ncnc3c3nc(CN4CCN(C(C)=O)CC4)cnc32)cc1 [Example 166, 9-((4-Acetylpiperazin-1-yl)methyl)-6-(4-methoxybenzyl)-[1,2,4]triazolo[1,5-c]pteridin-5(6H)-one]",0.1 to 1 µM
5,"COc1c(F)c(F)c(Cn2c(=O)n3ncnc3c3cc(CN4C[C@@H](C)O[C@@H](C)C4)cnc32)c(F)c1F [Example 146, 9-(((2S,6R)-2,6-Dimethylmorpholino)methyl)-6-(2,3,5,6-tetrafluoro-4-methoxybenzyl)pyrido[3,2-e][1,2,4]triazolo[1,5-c]pyrimidin-5(6H)-one]",0.1 to 1 µM
6,"COc1ccc(Cn2c(=O)n3ncnc3c3cc(N4CCC(N(C)C)C4)cnc32)cc1 (stereo not shown) [Example 14, 9-(3-(Dimethylamino)pyrrolidin-1-yl)-6-(4-methoxybenzyl)pyrido[3,2-e][1,2,4]triazolo[1,5-c]pyrimidin-5(6H)-one]",0.1 to 1 µM
7,"COc1ccc(Cn2c(=O)n3ncnc3c3cc(CN4CCNCC4)cnc32)cc1 [Example 65, 6-(4-Methoxybenzyl)-9-(piperazin-1-ylmethyl)pyrido[3,2-e][1,2,4]triazolo[1,5-c]pyrimidin-5(6H)-one]",1 to 10 µM
8,"COc1ccc(Cn2c(=O)n3ncnc3c3ccc(CNc4ccccc4)nc32)cc1 [Example 79, 6-(4-Methoxybenzyl)-8-((phenylamino)methyl)pyrido[3,2-e][1,2,4]triazolo[1,5-c]pyrimidin-5(6H)-one]",0.1 to 1 µM
9,C[C@@H]1CN(Cc2cnc3c(c2)c2ncnn2c(=O)n3Cc2ccc(F)c(F)c2)C[C@H](C)O1 [Example 118],0.1 to 1 µM
10,"COc1ccc(Cn2c(=O)n3ncnc3c3cc(C(O)CN4C[C@@H](C)O[C@@H](C)C4)cnc32)cc1 (stereo partly drawn) [Example 84, 9-(2-((2S,6R)-2,6-Dimethylmorpholino)-1-hydroxyethyl)-6-(4-methoxybenzyl)pyrido[3,2-e][1,2,4]triazolo[1,5-c]pyrimidin-5(6H)-one]",< 0.1 µM
11,"COc1ccc(Cn2c(=O)n3ncnc3c3ncc(CN4CCSCC4)cc32)cc1 [Example 59, 6-(4-Methoxybenzyl)-8-(thiomorpholinomethyl)pyrido[2,3-e][1,2,4]triazolo[1,5-c]pyrimidin-5(6H)-one]",1 to 10 µM
12,"COc1ccc(Cn2c(=O)n3ncnc3c3cc(CN4C[C@@H](C)O[C@@H](C)C4)cnc32)cc1 [Example 36, 9-(((2S,6R)-2,6-dimethylmorpholino)methyl)-6-(4-methoxybenzyl)pyrido[3,2-e][1,2,4]triazolo[1,5-c]pyrimidin-5(6H)-one]",< 0.1 µM
13,"COc1ccc(Cn2c(=O)n3ncnc3c3nc(N(C)C4CCN(C)CC4)cnc32)cc1 [Example 11, 6-(4-Methoxybenzyl)-9-(methyl(1-methylpiperidin-4-yl)amino)-[1,2,4]triazolo[1,5-c]pteridin-5(6H)-one]",1 to 10 µM
14,"COc1cc(Cn2c(=O)n3ncnc3c3cc(CN4C[C@@H](C)O[C@@H](C)C4)cnc32)cc(OC)c1 [Example 153, 6-(3,5-Dimethoxybenzyl)-9-(((2R,6S)-2,6-dimethylmorpholino)methyl)pyrido[3,2-e][1,2,4]triazolo[1,5-c]pyrimidin-5(6H)-one]",> 10 µM
15,C[C@@H]1CN(Cc2cnc3c(c2)c2ncnn2c(=O)n3Cc2ccc(-n3cccn3)cc2)C[C@H](C)O1 [Example 105],> 10 µM
16,"COc1ccc(Cn2c(=O)n3ncnc3c3ccc(COc4ccccc4)nc32)cc1 [Example 121, 6-(4-Methoxybenzyl)-8-(phenoxymethyl)pyrido[3,2-e][1,2,4]triazolo[1,5-c]pyrimidin-5(6H)-one]",0.1 to 1 µM
17,C[C@@H]1CN(Cc2cnc3c(c2)c2ncnn2c(=O)n3Cc2ccc(F)cc2Cl)C[C@H](C)O1 [Example 144],1 to 10 µM
18,"O=c1n(Cc2ccc(Cl)cc2)c2ncc(CN3CCCCC3)cc2c2ncnn12 [Example 25, 6-(4-Chlorobenzyl)-9-(piperidin-1-ylmethyl)pyrido[3,2-e][1,2,4]triazolo[1,5-c]pyrimidin-5(6H)-one]",1 to 10 µM
19,"COc1ccc(Cn2c(=O)n3ncnc3c3cc(CN4C[C@@H](C)O[C@@H](C)C4)cnc32)c(F)c1F [Example 108, 6-(2,3-Difluoro-4-methoxybenzyl)-9-(((2S,6R)-2,6-dimethylmorpholino)methyl)pyrido[3,2-e][1,2,4]triazolo[1,5-c]pyrimidin-5(6H)-one]",0.1 to 1 µM

row,Compound,EC50
1,"COc1ccc(Cn2c(=O)n3ncnc3c3cc(N4CCN(S(C)(=O)=O)CC4)cnc32)cc1 [Example 19, 6-(4-Methoxybenzyl)-9-(4-(methylsulfonyl)piperazin-1-yl)pyrido[3,2-e][1,2,4]triazolo[1,5-c]pyrimidin-5(6H)-one]",0.1 to 1 µM
2,"COc1ccc(Cn2c(=O)n3ncnc3c3cc(CN(C)C4CCOCC4)cnc32)cc1 [Example 53, 6-(4-Methoxybenzyl)-9-((methyl(tetrahydro-2H-pyran-4-yl)amino)methyl)pyrido[3,2-e][1,2,4]triazolo[1,5-c]pyrimidin-5(6H)-one]",1 to 10 µM
3,"C[C@@H]1CN(Cc2cnc3c(c2)c2ncnn2c(=O)n3Cc2ccc(Cl)cc2)C[C@H](C)O1 [Example 26, 6-(4-Chlorobenzyl)-9-(((2S,6R)-2,6-dimethylmorpholino)methyl)pyrido[3,2-e][1,2,4]triazolo[1,5-c]pyrimidin-5(6H)-one]",0.1 to 1 µM
4,"COc1ccc(Cn2c(=O)n3ncnc3c3nc(CN4CCOCC4)cnc32)cc1 [Example 162, 6-(4-Methoxybenzyl)-9-(morpholinomethyl)-[1,2,4]triazolo[1,5-c]pteridin-5(6H)-one]",0.1 to 1 µM
5,"COc1ccc(Cn2c(=O)n3ncnc3c3cc(CN4CCN(C(C)C)CC4)cnc32)c(F)c1F [Example 122, 6-(2,3-Difluoro-4-methoxybenzyl)-9-((4-isopropylpiperazin-1-yl)methyl)pyrido[3,2-e][1,2,4]triazolo[1,5-c]pyrimidin-5(6H)-one]",1 to 10 µM
6,"COc1cccc(Cn2c(=O)n3ncnc3c3cc(CN4C[C@@H](C)O[C@@H](C)C4)cnc32)c1 [Example 133, 9-(((2S,6R)-2,6-Dimethylmorpholino)methyl)-6-(3-methoxybenzyl)pyrido[3,2-e][1,2,4]triazolo[1,5-c]pyrimidin-5(6H)-one]",1 to 10 µM
7,"COc1ccc(Cn2c(=O)n3ncnc3c3ccc(C(OC)OC)nc32)cc1 [Example 3, 8-(Dimethoxymethyl)-6-(4-methoxybenzyl)pyrido[3,2-e][1,2,4]triazolo[1,5-c]pyrimidin-5(6H)-one]",1 to 10 µM
8,"COc1ccc(Cn2c(=O)n3ncnc3c3cc(N4CCC(N(C)C)CC4)cnc32)cc1 [Example 15, 9-(4-(Dimethylamino)piperidin-1-yl)-6-(4-methoxybenzyl)pyrido[3,2-e][1,2,4]triazolo[1,5-c]pyrimidin-5(6H)-one]",0.1 to 1 µM
9,"CSc1ccc(Cn2c(=O)n3ncnc3c3cc(CN4C[C@@H](C)O[C@@H](C)C4)cnc32)cc1 [Example 119, 9-(((2S,6R)-2,6-Dimethylmorpholino)methyl)-6-(4-(methylthio)benzyl)pyrido[3,2-e][1,2,4]triazolo[1,5-c]pyrimidin-5(6H)-one]",0.1 to 1 µM
10,"C[C@@H]1CN(Cc2cnc3c(c2)c2ncnn2c(=O)n3Cc2ccc(S(C)(=O)=O)cc2)C[C@H](C)O1 [Example 98, 9-(((2S,6R)-2,6-Dimethylmorpholino)methyl)-6-(4-(methylsulfonyl)benzyl)pyrido[3,2-e][1,2,4]triazolo[1,5-c]pyrimidin-5(6H)-one]",> 10 µM
11,"COc1ccc(Cn2c(=O)n3ncnc3c3cc(CN4CCN(CC5CCOC5)CC4)cnc32)cc1 (stereo not shown) [Example 67, 6-(4-Methoxybenzyl)-9-((4-((THF-3-yl)methyl)piperazin-1-yl)methyl)pyrido[3,2-e][1,2,4]triazolo[1,5-c]pyrimidin-5(6H)-one]",1 to 10 µM
12,"COc1ccc(Cn2c(=O)n3ncnc3c3cc(CN4CCSCC4)cnc32)cc1 [Example 23, 6-(4-Methoxybenzyl)-9-(thiomorpholinomethyl)pyrido[3,2-e][1,2,4]triazolo[1,5-c]pyrimidin-5(6H)-one]",0.1 to 1 µM
13,C[C@@H]1CN(Cc2cnc3c(c2)c2ncnn2c(=O)n3Cc2ccc(C(C)(C)C)cc2)C[C@H](C)O1 [Example 96],> 10 µM
14,C[C@@H]1CN(Cc2cnc3c(c2)c2ncnn2c(=O)n3Cc2ccc3c(c2)OCO3)C[C@H](C)O1 [Example 161],< 0.1 µM
15,"CCOc1c(F)cc(Cn2c(=O)n3ncnc3c3cc(CN4C[C@@H](C)O[C@@H](C)C4)cnc32)cc1F [Example 127, 9-(((2S,6R)-2,6-Dimethylmorpholino)methyl)-6-(4-ethoxy-3,5-difluorobenzyl)pyrido[3,2-e][1,2,4]triazolo[1,5-c]pyrimidin-5(6H)-one]",1 to 10 µM
16,"COc1ccc(Cn2c(=O)n3ncnc3c3cc(N(C)C4CCOCC4)cnc32)cc1 [Example 16, 6-(4-Methoxybenzyl)-9-(methyl(tetrahydro-2H-pyran-4-yl)amino)pyrido[3,2-e][1,2,4]triazolo[1,5-c]pyrimidin-5(6H)-one]",0.1 to 1 µM
17,"COCOCc1cnc2c(c1)c1ncnn1c(=O)n2Cc1ccc(OC)cc1 [Example 31, 6-(4-Methoxybenzyl)-9-((methoxymethoxy)methyl)pyrido[3,2-e][1,2,4]triazolo[1,5-c]pyrimidin-5(6H)-one]",0.1 to 1 µM
18,C[C@@H]1CN(Cc2cnc3c(c2)c2ncnn2c(=O)n3Cc2cc(F)cc(F)c2)C[C@H](C)O1 [Example 101],1 to 10 µM
